{
  "source": "paper PMC12820563",
  "about": "“FoxP3 forms a head-to-head dimer in vivo and stabilizes its multimerization on adjacent microsatellites”",
  "note": "The other results are listed elsewhere or left out.",
  "data": [
    {"target": "T1, MBP-FoxP1dN (Mus musculus, UniProt P58462 326-579)", "T1 sequence": "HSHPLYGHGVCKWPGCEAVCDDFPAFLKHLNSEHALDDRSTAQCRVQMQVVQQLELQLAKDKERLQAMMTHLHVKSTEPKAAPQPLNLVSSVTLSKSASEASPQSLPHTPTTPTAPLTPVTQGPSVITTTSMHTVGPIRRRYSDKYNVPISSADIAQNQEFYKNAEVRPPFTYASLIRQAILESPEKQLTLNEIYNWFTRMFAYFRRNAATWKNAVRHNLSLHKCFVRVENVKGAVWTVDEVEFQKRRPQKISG", "assay": "PD-seq (MBP pull-down with sequencing); 20 mM Tris-HCl pH 7.5, 100 mM NaCl, 1.5 mM MgCl2, 0.4 uM protein, 0.1 uM dsDNA library, 30 min, room temperature, amylose pull-down; high values mean tight binding", "details": "protein: recombinant; tags: His6-MBP; chain copies: 2; dsDNA, one strand shown", "in_short": "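The N-terminus-lacking fragment of mouse FoxP3 or FoxP1 carried a His6-MBP tag and was expressed in E. coli. At 0.4 µM it was incubated with 0.1 µM Klenow-filled degenerate double-stranded DNA library for 30 min at room temperature in Tris pH 7.5 buffer with NaCl and MgCl2, and complexes were caught on amylose resin, washed three times, released with proteinase K, PCR-barcoded and Illumina-sequenced. Binding is reads-per-million enrichment of pull-down over input with replicates pooled.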", "values": [
      {"sequence": "GATGATTGTTCTCCCAGCTGATGAATTTGCGGCTTCGAGTAAACAAATTTTCCTAATCTTTCTGTTCAAGCGCCATCTAC", "binding signal": "0.962 RPM ratio (pull-down/input)"},
      {"sequence": "GATGATTGTTCTCCCAGCTGATGAATTTCGTCTGTCGAGTAAACAAATTTTCCTAATCTTTCTGTTCAAGCGCCATCTAC", "binding signal": "0.863 RPM ratio (pull-down/input)"},
      {"sequence": "GATGATTGTTCTCCCAGCTGATGAATTATCGCGTTCGAGTAAACAAATTTTCCTAATCTTTCTGTTCAAGCGCCATCTAC", "binding signal": "1.07 RPM ratio (pull-down/input)"},
      {"sequence": "GATGATTGTTCTCCCAGCTGATGAATTGTTGTTCTCGAGTAAACAAATTTTCCTAATCTTTCTGTTCAAGCGCCATCTAC", "binding signal": "2.58 RPM ratio (pull-down/input)"},
      {"sequence": "GATGATTGTTCTCCCAGCTGATGAATTTTTGGTCTCGAGTAAACAAATTTTCCTAATCTTTCTGTTCAAGCGCCATCTAC", "binding signal": "0.878 RPM ratio (pull-down/input)"},
      {"sequence": "GATGATTGTTCTCCCAGCTGATGAATTAATCCAGTCGAGTAAACAAATTTTCCTAATCTTTCTGTTCAAGCGCCATCTAC", "binding signal": "0.858 RPM ratio (pull-down/input)"},
      {"sequence": "GATGATTGTTCTCCCAGCTGATGAATTCGTCGGATCGAGTAAACAAATTTTCCTAATCTTTCTGTTCAAGCGCCATCTAC", "binding signal": "0.841 RPM ratio (pull-down/input)"},
      {"sequence": "GATGATTGTTCTCCCAGCTGATGAATTCGATATTTCGAGTAAACAAATTTTCCTAATCTTTCTGTTCAAGCGCCATCTAC", "binding signal": "0.936 RPM ratio (pull-down/input)"},
      {"sequence": "GATGATTGTTCTCCCAGCTGATGAATTCGGTACTTCGAGTAAACAAATTTTCCTAATCTTTCTGTTCAAGCGCCATCTAC", "binding signal": "0.918 RPM ratio (pull-down/input)"},
      {"sequence": "GATGATTGTTCTCCCAGCTGATGAATTCGCTTTTTCGAGTAAACAAATTTTCCTAATCTTTCTGTTCAAGCGCCATCTAC", "binding signal": "0.922 RPM ratio (pull-down/input)"},
      {"sequence": "GATGATTGTTCTCCCAGCTGATGAATTAAAGCCCTCGAGTAAACAAATTTTCCTAATCTTTCTGTTCAAGCGCCATCTAC", "binding signal": "0.831 RPM ratio (pull-down/input)"},
      {"sequence": "GATGATTGTTCTCCCAGCTGATGAATTCATAATGTCGAGTAAACAAATTTTCCTAATCTTTCTGTTCAAGCGCCATCTAC", "binding signal": "1.07 RPM ratio (pull-down/input)"},
      {"sequence": "GATGATTGTTCTCCCAGCTGATGAATTTACTACGTCGAGTAAACAAATTTTCCTAATCTTTCTGTTCAAGCGCCATCTAC", "binding signal": "1.21 RPM ratio (pull-down/input)"},
      {"sequence": "GATGATTGTTCTCCCAGCTGATGAATTTATCGAATCGAGTAAACAAATTTTCCTAATCTTTCTGTTCAAGCGCCATCTAC", "binding signal": "1.13 RPM ratio (pull-down/input)"},
      {"sequence": "GATGATTGTTCTCCCAGCTGATGAATTGGCCCTTTCGAGTAAACAAATTTTCCTAATCTTTCTGTTCAAGCGCCATCTAC", "binding signal": "0.782 RPM ratio (pull-down/input)"},
      {"sequence": "GATGATTGTTCTCCCAGCTGATGAATTTCCCTTGTCGAGTAAACAAATTTTCCTAATCTTTCTGTTCAAGCGCCATCTAC", "binding signal": "0.838 RPM ratio (pull-down/input)"},
      {"sequence": "GATGATTGTTCTCCCAGCTGATGAATTAGACGCTTCGAGTAAACAAATTTTCCTAATCTTTCTGTTCAAGCGCCATCTAC", "binding signal": "0.937 RPM ratio (pull-down/input)"},
      {"sequence": "GATGATTGTTCTCCCAGCTGATGAATTTTGTTACTCGAGTAAACAAATTTTCCTAATCTTTCTGTTCAAGCGCCATCTAC", "binding signal": "1.24 RPM ratio (pull-down/input)"},
      {"sequence": "GATGATTGTTCTCCCAGCTGATGAATTAGTGCGATCGAGTAAACAAATTTTCCTAATCTTTCTGTTCAAGCGCCATCTAC", "binding signal": "1.01 RPM ratio (pull-down/input)"},
      {"sequence": "GATGATTGTTCTCCCAGCTGATGAATTCGCGTACTCGAGTAAACAAATTTTCCTAATCTTTCTGTTCAAGCGCCATCTAC", "binding signal": "0.843 RPM ratio (pull-down/input)"},
      {"sequence": "GATGATTGTTCTCCCAGCTGATGAATTGCGTTAGTCGAGTAAACAAATTTTCCTAATCTTTCTGTTCAAGCGCCATCTAC", "binding signal": "1.17 RPM ratio (pull-down/input)"},
      {"sequence": "GATGATTGTTCTCCCAGCTGATGAATTCCGCAGATCGAGTAAACAAATTTTCCTAATCTTTCTGTTCAAGCGCCATCTAC", "binding signal": "0.785 RPM ratio (pull-down/input)"},
      {"sequence": "GATGATTGTTCTCCCAGCTGATGAATTAGATGTTTCGAGTAAACAAATTTTCCTAATCTTTCTGTTCAAGCGCCATCTAC", "binding signal": "1.19 RPM ratio (pull-down/input)"},
      {"sequence": "GATGATTGTTCTCCCAGCTGATGAATTGAGTATATCGAGTAAACAAATTTTCCTAATCTTTCTGTTCAAGCGCCATCTAC", "binding signal": "1.1 RPM ratio (pull-down/input)"},
      {"sequence": "GATGATTGTTCTCCCAGCTGATGAATTGGGCTTATCGAGTAAACAAATTTTCCTAATCTTTCTGTTCAAGCGCCATCTAC", "binding signal": "0.909 RPM ratio (pull-down/input)"},
      {"sequence": "GATGATTGTTCTCCCAGCTGATGAATTTTAAATCTCGAGTAAACAAATTTTCCTAATCTTTCTGTTCAAGCGCCATCTAC", "binding signal": "0.797 RPM ratio (pull-down/input)"},
      {"sequence": "GATGATTGTTCTCCCAGCTGATGAATTTAACCCATCGAGTAAACAAATTTTCCTAATCTTTCTGTTCAAGCGCCATCTAC", "binding signal": "0.855 RPM ratio (pull-down/input)"},
      {"sequence": "GATGATTGTTCTCCCAGCTGATGAATTCCCACAGTCGAGTAAACAAATTTTCCTAATCTTTCTGTTCAAGCGCCATCTAC", "binding signal": "0.823 RPM ratio (pull-down/input)"},
      {"sequence": "GATGATTGTTCTCCCAGCTGATGAATTCTCTAAATCGAGTAAACAAATTTTCCTAATCTTTCTGTTCAAGCGCCATCTAC", "binding signal": "1.13 RPM ratio (pull-down/input)"},
      {"sequence": "GATGATTGTTCTCCCAGCTGATGAATTGAGTCGGTCGAGTAAACAAATTTTCCTAATCTTTCTGTTCAAGCGCCATCTAC", "binding signal": "0.747 RPM ratio (pull-down/input)"},
      {"sequence": "GATGATTGTTCTCCCAGCTGATGAATTCCGCAGTTCGAGTAAACAAATTTTCCTAATCTTTCTGTTCAAGCGCCATCTAC", "binding signal": "0.746 RPM ratio (pull-down/input)"},
      {"sequence": "GATGATTGTTCTCCCAGCTGATGAATTCCCTGGCTCGAGTAAACAAATTTTCCTAATCTTTCTGTTCAAGCGCCATCTAC", "binding signal": "0.716 RPM ratio (pull-down/input)"},
      {"sequence": "GATGATTGTTCTCCCAGCTGATGAATTCCTTAACTCGAGTAAACAAATTTTCCTAATCTTTCTGTTCAAGCGCCATCTAC", "binding signal": "0.862 RPM ratio (pull-down/input)"},
      {"sequence": "GATGATTGTTCTCCCAGCTGATGAATTGGAACAATCGAGTAAACAAATTTTCCTAATCTTTCTGTTCAAGCGCCATCTAC", "binding signal": "1.4 RPM ratio (pull-down/input)"},
      {"sequence": "GATGATTGTTCTCCCAGCTGATGAATTTACCAGCTCGAGTAAACAAATTTTCCTAATCTTTCTGTTCAAGCGCCATCTAC", "binding signal": "1.05 RPM ratio (pull-down/input)"},
      {"sequence": "GATGATTGTTCTCCCAGCTGATGAATTCTCCATCTCGAGTAAACAAATTTTCCTAATCTTTCTGTTCAAGCGCCATCTAC", "binding signal": "0.828 RPM ratio (pull-down/input)"},
      {"sequence": "GATGATTGTTCTCCCAGCTGATGAATTTCTCCACTCGAGTAAACAAATTTTCCTAATCTTTCTGTTCAAGCGCCATCTAC", "binding signal": "0.945 RPM ratio (pull-down/input)"},
      {"sequence": "GATGATTGTTCTCCCAGCTGATGAATTTAAACGATCGAGTAAACAAATTTTCCTAATCTTTCTGTTCAAGCGCCATCTAC", "binding signal": "0.917 RPM ratio (pull-down/input)"},
      {"sequence": "GATGATTGTTCTCCCAGCTGATGAATTCGCGATGTCGAGTAAACAAATTTTCCTAATCTTTCTGTTCAAGCGCCATCTAC", "binding signal": "0.962 RPM ratio (pull-down/input)"},
      {"sequence": "GATGATTGTTCTCCCAGCTGATGAATTACTTTTCTCGAGTAAACAAATTTTCCTAATCTTTCTGTTCAAGCGCCATCTAC", "binding signal": "1.1 RPM ratio (pull-down/input)"}
    ]}
  ]
}
